About 310 (0.076%) of roughly 410,000 compounds were called active. Inconclusive results, whose numbers are uncertain, are shown with a selection of clear calls. Calls follow the shape of the dose curve; as a rule, active = well fitted curve in the direction sought with a large enough effect; inconclusive = small, poorly fitted or top-dose-only effect; inactive = flat fitted curve, though single readings scatter. Potencies beside an inconclusive call are fits to weak or partial responses and may not hold up.
These compounds were tested against DNA dC->dU-editing enzyme APOBEC-3G (Homo sapiens) (UniProt Q9HC16) (assay: qHTS for Inhibitors of Vif-A3G Interactions: qHTS). Settings: HeLa A3G-eYFP + Vif (tagged APOBEC3G with the HIV-1 protein that degrades it), YFP fluorescence, overnight; series mostly up to 46.1 µM; activity, negative = active: at the top concentration.
UniProt Q9HC16, sequence (Q9HC16 whole entry, looked up): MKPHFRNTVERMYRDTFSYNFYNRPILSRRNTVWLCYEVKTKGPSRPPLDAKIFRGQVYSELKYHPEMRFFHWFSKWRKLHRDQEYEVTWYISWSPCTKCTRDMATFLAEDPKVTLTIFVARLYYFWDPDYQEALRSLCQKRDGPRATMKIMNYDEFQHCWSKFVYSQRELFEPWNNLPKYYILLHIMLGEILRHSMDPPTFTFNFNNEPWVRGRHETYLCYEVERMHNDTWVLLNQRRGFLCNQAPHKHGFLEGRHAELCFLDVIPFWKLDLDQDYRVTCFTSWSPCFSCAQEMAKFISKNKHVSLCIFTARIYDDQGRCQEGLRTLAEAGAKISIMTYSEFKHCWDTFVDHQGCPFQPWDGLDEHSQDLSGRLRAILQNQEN
Outline: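 HeLa cells stably expressing Vif and C-terminally eYFP-tagged A3G, seeded overnight at 37 deg C, then exposed to compound by pintool overnight at 37 deg C. Rise in yellow fluorescence (Ex 488/Em 500-530, Acumen) marks blocked Vif-driven A3G degradation.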
NC(=O)c1cc2c3ccccc3ccn2c1-c1ccccc1 was tested, and the Potency was inconclusive: 2.82 µM [inhibitor, full curve, poor fit]. With CCOC(=O)C1=C(COC(=O)c2ccccc2OC(F)F)NC(=O)NC1C (configuration not stated) the “activity, negative = active” value was inactive: -0.366%. With COc1cccc(/C=C/c2nccc3ccccc23)c1OC the “activity, negative = active” value was inactive: -20.8%. Cc1ccc(Cl)cc1NC(=O)Cn1cc(S(=O)(=O)Cc2ccccc2Cl)c2ccccc21 was tested, and the Potency was inconclusive: 28.2 µM [inhibitor, single point]. With Cc1sc2nc(CSCC(=O)Nc3c(Cl)cccc3Cl)[nH]c(=O)c2c1C the Potency was inconclusive: 17.8 µM [inhibitor, single point]. In the case of CCc1ccc(C(=O)c2cn(CC(=O)Nc3ccc(OC)c(Cl)c3)c3nc(C)ccc3c2=O)cc1, the “activity, negative = active” value is reported as inactive: 3.07%. CCOC(=O)N1CCC(Nc2nc3ccccc3n3nnnc23)CC1 was tested, and the “activity, negative = active” value was inactive: -8.42%. With COc1ccc2oc(=O)c(-c3nc4ccccc4o3)cc2c1 the Potency was inconclusive: 12.6 µM [inhibitor, partial curve, poor fit]. In the case of COc1ccc(N2CCN(C(=O)CNC(=O)Cc3ccc(Cl)cc3)CC2)cc1, the Potency is reported as inconclusive: 11.2 µM [inhibitor, partial curve, poor fit]. In the case of CC(=O)Nc1cccc(-c2nnc(SCC(=O)c3cc([N+](=O)[O-])ccc3Br)o2)c1, the Potency is reported as inconclusive: 5.62 µM [inhibitor, full curve]. In the case of COc1cccc2sc(Nc3nnc(-c4ccccc4Cl)o3)nc12, the Potency is reported as inconclusive: 1 µM [inhibitor, full curve, poor fit]. Cc1ccc(C)c(Nc2cc(C)nc(-c3ccccc3O)n2)c1 was tested, and the Potency was inconclusive: 3.55 µM [inhibitor, single point]. For CCOc1ccc(Cl)cc1S(=O)(=O)n1cnc2ccccc21, the Potency was inconclusive: 11.2 µM [inhibitor, partial curve, poor fit]. CC(=O)Nc1ccc(/C=C/C(=O)c2ccc3c(c2)OCCO3)cc1 was tested, and the Potency was inconclusive: 22.4 µM [inhibitor, single point]. In the case of CSc1ncc(C(=O)Nc2ccc(Br)cn2)c(C)n1, the Potency is reported as inconclusive: 35.5 µM [inhibitor, single point]. CCN(CC)c1ccc(NC(=O)c2ccc3c(c2)c(C)c(C)n3C)cc1 was tested, and the Potency was inconclusive: 11.2 µM [inhibitor, partial curve, poor fit]. With CCN1CCN(Cc2ccc(NC(=O)c3cc(NC(=O)C(=O)c4c[nH]c5ccccc45)cc(OC)c3)cc2C(F)(F)F)CC1 the Potency was inconclusive: 35.5 µM [inhibitor, single point]. With O=C1NC(c2ccc(Br)cc2)Nc2ccccc21 (configuration not stated) the Potency was inconclusive: 7.94 µM [inhibitor, partial curve]. In the case of COc1ccccc1C1=NOC(COc2ccc3c(C)cc(=O)oc3c2)C1 (configuration not stated), the Potency is reported as inconclusive: 1.26 µM [inhibitor, full curve, poor fit]. With CC(=O)N(C1=C(Cl)C(=O)c2ccccc2C1=O)C1CCCCC1 the Potency was inconclusive: 3.16 µM [inhibitor, partial curve, poor fit]. With Fc1cccc(Cl)c1CSc1nnnn1-c1ccc2c(c1)OCO2 the Potency was inconclusive: 11.2 µM [inhibitor, partial curve, poor fit]. With C1=C(c2ccccc2)Nc2nnnn2C1c1cccs1 (configuration not stated) the Potency was inconclusive: 10 µM [inhibitor, partial curve, poor fit]. With COc1cc(-c2cnc3c(NC=O)cc(-c4ccccc4)cn23)cc(OC)c1OC the Potency was inconclusive: 35.5 µM [inhibitor, partial curve, poor fit]. For Cc1cccc(C)c1OCC(=O)N/N=C/C=C/c1ccco1, the Potency was inconclusive: 10 µM [inhibitor, partial curve]. For Cc1[nH]c2ccccc2c1CC(=O)O, the “activity, negative = active” value was inactive: -0.57%. In the case of O=C(COC(=O)c1ccccc1Nc1ccccc1)c1ccccc1, the “activity, negative = active” value is reported as inactive: -4.41%. O=C(O)C1CCCN(S(=O)(=O)c2cccs2)C1 (configuration not stated) was tested, and the “activity, negative = active” value was inactive: -0.695%. In the case of Cc1cc(-c2cc(C(=O)NCc3ccccc3)on2)nc(S(C)(=O)=O)n1, the “activity, negative = active” value is reported as inactive: -20.3%. With CC(C)S(=O)(=O)c1oc(-c2ccc(F)cc2)nc1S(=O)(=O)c1ccc(F)cc1 the Potency was inconclusive: 12.6 µM [inhibitor, single point]. Cc1ccccc1N=C1NC(=O)/C(=C/c2cccn2C)S1 was tested, and the Potency was inconclusive: 20 µM [inhibitor, single point]. For Cc1ccc(NC(=O)c2ccc([N+](=O)[O-])o2)c(C)c1, the Potency was inconclusive: 25.1 µM [inhibitor, single point]. With Cc1ccc2nc(C(C)(C)C)c(Cc3ccsc3)n2c1 the Potency was inconclusive: 25.1 µM [inhibitor, single point]. For CC(C)CN(C(=O)COC(=O)COc1ccc2ccccc2c1)c1c(N)n(Cc2ccccc2)c(=O)[nH]c1=O, the Potency was inconclusive: 31.6 µM [inhibitor, single point]. CCOc1ccc(C(C)C)cc1S(=O)(=O)Nc1cccc(-c2ccc(N3CCOCC3)nn2)c1 was tested, and the “activity, negative = active” value was inactive: 1.62%. In the case of CCC(=O)Nc1ccccc1-c1nc2ccccc2n(C(CC)C(=O)Nc2cccc(C(C)=O)c2)c1=O (configuration not stated), the Potency is reported as inconclusive: 14.1 µM [inhibitor, single point]. In the case of CC(C)(C)c1ccc(OCCSc2nc(-c3cccs3)nc3cc(=O)[nH]n23)cc1, the “activity, negative = active” value is reported as inactive: -7.62%. For O=C(Nc1ccc(N2CCCCCC2)cc1)c1ccccc1Cl, the Potency was inconclusive: 8.91 µM [inhibitor, partial curve, poor fit]. With COCCn1c(=NC(=O)c2cc3ccccc3oc2=O)sc2cc(S(N)(=O)=O)ccc21 the Potency was inconclusive: 31.6 µM [inhibitor, single point]. For Cc1cccc(N2C(S)=C(C#N)C(=O)NC2c2ccco2)c1 (configuration not stated), the “activity, negative = active” value was inactive: -1.89%. In the case of O=C(NC1CCCC1)C(c1ccc(F)cc1)N(Cc1ccc(Cl)cc1)C(=O)CCl (configuration not stated), the “activity, negative = active” value is reported as inactive: 0.468%. For CCOc1ccccc1CNC(=O)CN1C(=O)c2cccnc2Oc2ccc(Cl)cc21, the “activity, negative = active” value was inactive: -2.81%. In the case of NC(=O)CC(NC(=O)Cc1cccc2ccccc12)c1ccc(NCCc2ccccc2F)c([N+](=O)[O-])c1 (configuration not stated), the Potency is reported as inconclusive: 28.2 µM [inhibitor, single point]. Cc1ccc(CCNC(=O)CCCn2c(=O)c3cccn3c3ccc(F)cc32)cc1 was tested, and the “activity, negative = active” value was inactive: 3.11%. For Clc1ccccc1/C=N/NC1=Nc2cccc3cccc1c23, the Potency was inconclusive: 2.24 µM [inhibitor, full curve, poor fit]. With CCc1ccccc1NC(=O)Cn1nnc(C(=O)NCc2cccc(OC)c2)c1N the Potency was inconclusive: 10 µM [inhibitor, partial curve, poor fit]. In the case of O=C(N/N=C/C(Br)=C/c1ccccc1)c1cnccn1, the Potency is reported as inconclusive: 35.5 µM [inhibitor, single point]. With COc1ccc(N(CC(=O)Nc2cc(Cl)ccc2OC)S(=O)(=O)c2c(C)noc2C)cc1 the Potency was inconclusive: 2.51 µM [inhibitor, full curve, poor fit]. With CC(C)(C)c1ccc(NC(=O)N2CCCN(c3c(Cl)cncc3Cl)CC2)cc1 the “activity, negative = active” value was inactive: 6.95%. With C=C1C(=O)[C@]23C[C@H]1CCC2[C@]1(C)C(=O)CC[C@@](C)(C(=O)O)C1C[C@@H]3O (some centres not stated) the Potency was inconclusive: 10 µM [inhibitor, partial curve, poor fit]. For COc1ccc(-c2sc(C(=O)c3ccc(Cl)cc3Cl)cc2CC(=O)O)cc1, the Potency was inconclusive: 35.5 µM [inhibitor, single point]. With C/C(=N\NC(=O)c1cc(C)nc2ccccc12)c1ccncc1 the Potency was inconclusive: 8.91 µM [inhibitor, partial curve, poor fit]. In the case of CCOC(=O)c1sc(NC(=O)/C=C/c2cnn(CC)c2C)c(C(=O)OCC)c1C, the “activity, negative = active” value is reported as inactive: 0.467%. In the case of O=C(Cn1ncc(Cl)c(Cl)c1=O)N1CCN(Cc2ccccc2)CC1, the Potency is reported as inconclusive: 35.5 µM [inhibitor, single point]. COc1cccc(-c2cc(C(=O)Nc3cccnc3)no2)c1 was tested, and the Potency was inconclusive: 10 µM [inhibitor, partial curve]. CCOC(=O)C1=C(C)NC(SCC(=O)OC)=C(C#N)C1c1ccc(C(=O)OC)cc1 (configuration not stated) was tested, and the Potency was “inactive”. With CCOC(=O)C(=Cc1ccc(Br)cc1)C(=O)OCC the Potency was inconclusive: 4.47 µM [inhibitor, full curve]. For O=[N+]([O-])c1cc(C(F)(F)F)ccc1NC1CCN(Cc2ccccc2)CC1, the “activity, negative = active” value was inactive: -0.859%. With COc1ccc(C2CC(=O)c3cnc(NC(=O)c4ccccc4)nc3C2)c(OC)c1 (configuration not stated) the Potency was inconclusive: 7.94 µM [inhibitor, partial curve, poor fit]. For O=[N+]([O-])c1ccc(/C=C/C2=NN(c3ccccc3)C(c3ccco3)C2)o1 (configuration not stated), the Potency was inconclusive: 2.24 µM [inhibitor, full curve, poor fit]. In the case of O=C(O)/C=C/C(=O)O, the “activity, negative = active” value is reported as inactive: -0.919%. For O=C(COc1ccccc1)N1CCN(S(=O)(=O)c2cccs2)CC1, the “activity, negative = active” value was inactive: -1.25%. With O=C(/C=C/c1ccco1)NC(=S)Nc1ccc(N2CCOCC2)c(Cl)c1 the Potency was inconclusive: 10 µM [inhibitor, partial curve, poor fit]. CCc1ccc(CNC(=O)c2ccc(Cn3c(=O)c4cccn4c4cccnc43)cc2)cc1 was tested, and the “activity, negative = active” value was inactive: 5.32%. For COc1cccc(/C(O)=C/c2nc3ccc(C(=O)NCCc4cccc(C)c4)cc3[nH]c2=O)c1, the Potency was active: 5.62 µM. With O=C(Cn1ncc(Cl)c(Cl)c1=O)NC(=O)NC1CCCCC1 the Potency was inconclusive: 10 µM [inhibitor, partial curve, poor fit]. COC(=O)CSc1nc(N)c2c3c(sc2n1)CCCC3 was tested, and the “activity, negative = active” value was inactive: -4.49%. In the case of CN(C)c1ccc(-c2cc(NC=O)c3ncc(-c4ccc(F)c(Cl)c4)n3c2)cc1, the Potency is reported as inconclusive: 17.8 µM [inhibitor, single point].

From PubChem BioAssay AID602310 (National Center for Advancing Translational Sciences (NCATS), 2012)
% is scaled to controls: 0 for no effect and ±100 for the full control effect; potency is read from the fitted curve at half-maximal effect; tags tell the direction and shape of the fitted curve.
Also: nearly all actives have a fitted effect of over 60% in size.
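For activity, negative = active in this document: hits raise eYFP signal because A3G escapes Vif-driven loss.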
